Data from PubChem BioAssay (NCATS).
Inconclusive means that the source gave no clear call. Such entries were picked first, then a sample of the others. For some of these results: Where the call is inconclusive, the potency comes from a doubtful curve fit. For some of these results: “Side channel” marks fits to a control or component signal instead of the main read-out. Active and inactive are the calls of the source. Unless noted, the call rests on the fitted dose curve; in most records, active means well fitted curve in the direction sought with a large enough effect; inconclusive means small, poorly fitted or top-dose-only effect, or another doubt; inactive means no such curve, though single readings can be large; an effect the other way counts as inactive or inconclusive.

How the values were obtained:
[1] = biological target: Flap endonuclease 1 (Homo sapiens) (UniProt P39748); assay: qHTS Assay for the Inhibitors of FEN1: Confirmatory Assay for Cherry-picked Compounds (AID 720498); conditions: FEN1 flap cleavage, TAMRA/BHQ2 fluorogenic DNA substrate; further: potency means the concentration at half of the fitted maximal effect; nearly all actives have a fitted effect of over 60% in size
Outline: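 FEN1 at 10 nM was preincubated with compound for 15 min at room temperature, then 50 nM (final) double-flap DNA substrate was added. TAMRA fluorescence released from the BHQ-2-quenched flap was read at 0 and 15 min (ex 525/em 598 nm).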

[2] = Primary fluorescence-based thiol-reactive (MSTI) qHTS assay for identification of artifact compounds. (AID 1845221); conditions: MSTI thiol-reactivity probe, 1 h; series mostly up to 53.8 µM;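 further: potency means the concentration at half of the fitted maximal effect; thiol-reactive compounds lower the probe fluorescence signal; nearly all actives have a fitted effect of over 65% in size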
Outline: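 Compounds were incubated 1 h at room temperature in the dark with the MSTI probe (4 uM) in PBS pH 7.4, 2% DMSO. Signals were normalized between Acetyl-MSTI and MSTI.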

CRL-7250 = normal cell line; assay: Cytotoxic Profiling of Annotated Libraries Using Quantitative High-Throughput Screening (AID 1296008); conditions: Five cell lines viability, CellTiter-Glo ATP luminescence, 48-72 h; max response: stronger effect = lower value; further: nearly all actives have a fitted effect of over 60% in size; further: potency means the concentration at half of the fitted maximal effect
Outline: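 Compounds were pin-transferred onto cells and incubated 48 or 72 hr at 37 degree Celsius, 95% humidity. CellTiter-Glo was added, plates sat 10 min at room temperature, then ATP-coupled luminescence was imaged as the viability read-out.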

SKOV3 = assay: Primary qHTS to identify gynecologic anti-cancer compounds using libraries of approved drugs and bioactive compounds (AID 1345084); conditions: Gynecologic cancer cell panel viability, ATPlite luminescence, 48 h; series mostly up to 57.5 µM; further: nearly all actives have a fitted effect of over 55% in size; further: potency means the concentration at half of the fitted maximal effect; on activity change, negative = cytotoxicity: on the % scale 0 is the no-effect control and ±100 the full control effect
Outline: (§1)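 Luminescence from the ATPlite ATP-monitoring reagent indicates viable cell number; lower signal means cytotoxicity. Cells received compound 16 h after seeding and were exposed for 48 h across five concentrations.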

[3] = test system: Zika virus NS2B-NS3 protease (unlinked complex); assay: Primary screen GU Rhodamine qHTS for Zika virus inhibitors: Unlinked NS2B-NS3 protease assay (AID 1347159); conditions: Recombinant ZIKV NS2B-NS3 protease, Rhodamine110 substrate fluorescence; series mostly up to 107 µM; further: nearly all actives have a fitted effect of over 60% in size; further: potency means the concentration at half of the fitted maximal effect
Outline: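 Noncovalent NS2B hydrophilic domain–NS3 protease domain complex (25 nM) preincubated 15 min at room temperature with compounds (up to 114 microM) in 10 mM Tris-HCl pH 8.0, 0.01% Tween 20; 1.5 microM Rhodamine110 substrate added, fluorescence change over 15 min fitted to Hill equation.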

[4] = P-glycoprotein substrates identified in KB-8-5-11 adenocarcinoma cell line, qHTS therapeutic library screen (AID 1346987); conditions: KB-8-5-11 (P-gp overexpressing) viability, CellTiter-Glo, 72 h; series mostly up to 44.5 µM; further: nearly all actives have a fitted effect of over 65% in size; further: potency means the concentration at half of the fitted maximal effect
Outline: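 KB-8-5-11, a colchicine-selected P-gp-overexpressing KB-3-1 subline, was grown without colchicine for the assay. Cells were seeded at 500 cells/well, dosed in concentration-response and incubated 72 h at 37 degree C, 5% CO2. Viability was read by CellTiter-Glo luminescence.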

[5] = test system: Zika virus NS2B-NS3 protease (linked construct); assay: Primary screen NINDS Rhodamine qHTS for Zika virus inhibitors (AID 1347160); conditions: purified NS2B-NS3 protease, Rhodamine110 substrate fluorescence; activity change, negative = inhibition: at 57.1 µM (top of the series) unless noted; series mostly up to 57.1 µM; further: nearly all actives have a fitted effect of over 55% in size; further: potency means the concentration at half of the fitted maximal effect
Outline: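 Purified linked NS2B-NS3 protease (NS2B hydrophilic domain joined to NS3 protease by flexible linker), 25 nM in 10 mM Tris-HCl pH 8.0, 0.01% Tween 20. Compounds titrated, 15 min preincubation at room temperature; 1.5 microM Rhodamine110 substrate, FITC fluorescence change over 15 min.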

Tov112D = assay: Primary qHTS to identify gynecologic anti-cancer compounds using libraries of approved drugs and bioactive compounds (AID 1345084); conditions: Gynecologic cancer cell panel viability, ATPlite luminescence, 48 h; series mostly up to 57.5 µM; further: nearly all actives have a fitted effect of over 55% in size; further: potency means the concentration at half of the fitted maximal effect; on activity change, negative = cytotoxicity: on the % scale 0 is the no-effect control and ±100 the full control effect
Outline: as §1

[6] = biological target: Cytochrome P450 2D6 (Homo sapiens) (UniProt P10635); assay: Cytochrome P450 family 2 subfamily D member 6 (CYP2D6) small molecule antagonists: luciferase biochemical (cell-free) qHTS assay (AID 1645840; active means well fitted curve in the direction sought with a large enough effect in the repeat runs; inconclusive means weak or mixed curves; inactive means no such curve, though single readings can be large; an effect the other way counts as inactive or inconclusive); conditions: P450-Glo CYP2D6 enzyme, luciferin luminescence, 1 h; series mostly up to 57.4 µM
Outline: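 P450-Glo luminescent screen: recombinant CYP2D6 enzyme–proluciferin substrate mix preincubated with compound 10 min at room temperature, then NADPH regeneration added for 1 h at room temperature. Detection reagent added for 20 min; luciferin light read as relative luminescence units.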

[7] = biological target: Glutathione peroxidase 1 (Homo sapiens) (UniProt P07203); assay: Primary qHTS Assay for Inhibitors of Recombinant Selenoprotein Glutathione Peroxidase 1 (GPX1) (AID 1845191); conditions: recombinant GPX1, GR-coupled NADPH fluorescence, 15 min; activity, negative = inhibition: at 48.8 µM (top of the series); series mostly up to 48.8 µM; further: potency means the concentration at half of the fitted maximal effect; nearly all actives have a fitted effect of over 65% in size
Outline: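 Recombinant GPX1 (10 nM final) was preincubated with compound for 30 min at room temperature, then reacted with 1 mM GSH, 0.5 mM CHP, 0.5 mM NADPH and 100 nM glutathione reductase; NADPH fluorescence (340/450 nm) was read at 0 and 15 min.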

[8] = Primary redox qHTS assay for identification of artifact compounds. (AID 1845223); conditions: Amplex Red/HRP redox cycling with DTT, fluorescence; redox activity (% of DA3003): at 53.8 µM (top of the series); further: potency means the concentration at half of the fitted maximal effect;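 on redox activity (% of DA3003): 0% = DMSO and 100% = reference compound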
Outline: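 Amplex Red (25 uM) and HRP (250 mU/mL) in HBSS, with compounds for 15 min, then 250 uM DTT for 30 min, room temperature, dark. Fluorescence 525/598 nm read; normalized to DMSO and 10 uM DA3003; Hill fit.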

Tov-21-G = assay: Primary qHTS to identify gynecologic anti-cancer compounds using libraries of approved drugs and bioactive compounds (AID 1345084); conditions: Gynecologic cancer cell panel viability, ATPlite luminescence, 48 h; activity change, negative = cytotoxicity: at 57.5 µM (top of the series) unless noted; further: nearly all actives have a fitted effect of over 55% in size; further: potency means the concentration at half of the fitted maximal effect
Outline: as §1

[9] = Cellular Toxicity (caspase-3) Mesangial (AID 660); conditions: mesangial cells, normalized: DMSO 0%, 100 µM tamoxifen 100%; at 91.7 µM (top of the series);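 further: combined caspase 3 and 7 activity read by Caspase-Glo luminescence; cells exposed to compound for 16 h before the caspase read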
Outline: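 Human renal glomerular mesangial cells, 1000/well, 5 h at 37 C before 16 h compound treatment. Caspase-Glo 3/7 luminescence after 20 min; normalized to DMSO and 100 uM tamoxifen, AC50 from Hill fit.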

[10] = biological target: Androgen receptor (Homo sapiens) (UniProt P10275); assay: qHTS assay for small molecule antagonists of androgen receptor signaling (AID 588516; active means well fitted curve in the direction sought with a large enough effect in the signal ratio, with a control signal flat, not every such curve was filed as active; inconclusive means small, poorly fitted or top-dose-only effect, or effect the other way, or a change in a side signal; inactive means no such curve, though single readings can be large or run the other way; the % refers to the signal ratio; further: on the % scale 0 is the no-effect control and ±100 the full control effect); conditions: AR-UAS-bla HEK293, beta-lactamase ratio, antagonist mode, 16 h; activity change, negative = inhibition: at 76.8 µM (top of the series)
Outline: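 Antagonist-mode qHTS: inhibition of R1881 (10 nM)-driven beta-lactamase expression in GripTite HEK 293 cells is measured after 16 h; values are Hill-derived IC50s normalized between R1881 and DMSO wells.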

[11] = biological target: Bile acid receptor (Homo sapiens) (UniProt Q96RI1); assay: qHTS assay for small molecule antagonists of farnesoid X receptor signaling (AID 588526; calls by dose curve; further: on the % scale 0 is the no-effect control and ±100 the full control effect); conditions: HEK293T FXR-UAS-bla, beta-lactamase ratio, antagonist mode; activity change, negative = inhibition: at 76.7 µM (top of the series)
Outline: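 Concentration-response titrations were fitted to the Hill equation for half-maximal inhibition and maximal response, with data normalised to 50 uM chenodeoxycholic acid and DMSO control wells. Cells: FXR-UAS-bla HEK293T, dialyzed FBS.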

[12] = biological target: Peroxisome proliferator-activated receptor delta (Homo sapiens) (UniProt Q03181); assay: qHTS assay for small molecule agonists of peroxisome proliferator-activated receptor delta signaling (AID 588534; calls by dose curve; further: potency means the concentration at half of the fitted maximal effect); conditions: HEK293T PPARdelta-UAS-bla, beta-lactamase ratio, 18 h; activation: at 76.7 µM (top of the series)
Outline: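 Cells carrying a PPAR-delta beta-lactamase reporter were treated with compounds for 18 h at 37 °C in agonist mode. CCF4 fluorescence was read after 2 h; EC50 and efficacy from Hill fits.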

[13] = biological target: Peroxisome proliferator-activated receptor delta (Homo sapiens) (UniProt Q03181); assay: qHTS assay for small molecule antagonists of peroxisome proliferator-activated receptor delta signaling (AID 588535; active means well fitted inhibition curve with a large enough effect in the signal ratio, with a control signal flat, not every such curve was filed as active; inconclusive means small, poorly fitted or top-dose-only effect, or effect the other way, or a change in a side signal; inactive means no such curve, though single readings can be large or run the other way; the % refers to the signal ratio); conditions: HEK293T PPARd-UAS-bla, beta-lactamase FRET ratio, 18 h; activity change, negative = inhibition: at 76.7 µM (top of the series)
Outline: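 Reporter: UAS-bla under PPAR-delta response element, HEK293T host. Medium: 2% charcoal/dextran FBS. Dosing: titration, 18 hrs, 37 C. Detection: CCF4, 2 hrs RT, 405 ex/460 and 530 em.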

[14] = biological target: Peroxisome proliferator-activated receptor gamma (Homo sapiens) (UniProt P37231); assay: qHTS assay for small molecule agonists of peroxisome proliferator-activated receptor gamma signaling (AID 588536; active means well fitted curve in the direction sought with a large enough effect in the signal ratio, with a control signal flat, not every such curve was filed as active; inconclusive means small, poorly fitted or top-dose-only effect, or effect the other way, or a change in a side signal; inactive means no such curve, though single readings can be large or run the other way; the % refers to the signal ratio;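 further: 0% = DMSO basal wells and 100% = rosiglitazone at 2 µM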); conditions: HEK293 PPARg-UAS-bla, beta-lactamase ratio, 16 h; activation: at 76.7 µM (top of the series), percent of rosiglitazone response, DMSO as zero
Outline: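 PPAR-gamma-UAS-bla HEK293 cells in medium with 1% charcoal/dextran-treated FBS were exposed to compounds for 16 h at 37 C. Beta-lactamase activity was read with CCF4 substrate (405 nm excitation, 460/530 nm emission).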

[15] = biological target: Peroxisome proliferator-activated receptor gamma (Homo sapiens) (UniProt P37231); assay: qHTS assay for small molecule antagonists of peroxisome proliferator-activated receptor gamma signaling (AID 588537; active means well fitted inhibition curve with a large enough effect in the signal ratio, with a control signal flat, not every such curve was filed as active; inconclusive means small, poorly fitted or top-dose-only effect, or effect the other way, or a change in a side signal; the % refers to the signal ratio;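 further: reporter cells co-stimulated with 50 nM rosiglitazone agonist during compound treatment; % of control where 0% means no effect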); conditions: HEK293 PPARg-UAS-bla, beta-lactamase ratio, antagonist mode; activity, negative = inhibition: at 76.8 µM (top of the series)
Outline: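 We seeded GeneBLAzer HEK293 reporter cells at 3000 per well, allowed 6-6.5 h attachment at 37 C, then co-treated with test compound titrations and 50 nM rosiglitazone overnight (16 h). Inhibition was quantified from 460/530 nm emission ratios.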

[16] = qHTS assay for small molecule agonists of the antioxidant response element (ARE) signaling pathway (AID 651741; active means well fitted activation curve with a large enough effect in the signal ratio; inconclusive means small, poorly fitted or top-dose-only effect, or effect the other way, or a change in a side signal; the % refers to the signal ratio; further: % of control where 0% means no effect); conditions: HepG2 ARE-bla reporter, beta-lactamase FRET ratio, 16 h; activation: at 96 µM (top of the series)
Outline: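 Compounds in DMSO are pinned onto HepG2 ARE-bla cells (2,000/well) that were preincubated 5 h; plates stay 16 h at 37 C, then beta-lactamase activity is detected with LiveBLAzer B/G substrate by fluorescence.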

[17] = qHTS assay for small molecule disruptors of the mitochondrial membrane potential - 1 hr assay (AID 651754; calls by dose curve; further: potency means the concentration at half of the fitted maximal effect; nearly all actives have a fitted effect of over 35% in size); conditions: ratio change, negative = depolarisation: at 92.2 µM (top of the series)
Outline: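 HepG2 cells, attached overnight, were exposed to compound for 1 hr at 37C, then stained 30 min with a potentiometric dye. Ratio of red aggregate (590nm) to green monomer (535nm) fluorescence reports membrane potential; collapse shifts signal toward green.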

[18] = qHTS assay for small molecule disruptors of the mitochondrial membrane potential - 5 hr assay (AID 651755; calls by dose curve; further: potency means the concentration at half of the fitted maximal effect; nearly all actives have a fitted effect of over 40% in size); conditions: JC-1-type ratio dye; ratio change, negative = disruption: at 92.2 µM (top of the series)
Outline: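 HepG2 cells, attached overnight at 37C, were exposed to compound or DMSO for 5 hr at 37C, 5% CO2. Mito-MPS dye was then added for 30 min, and fluorescence read at 490/535 nm (monomers) and 540/590 nm (aggregates).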

[19] = qHTS assay to identify small molecules that stimulate interleukin-8 (IL-8) secretion (AID 651758; active means well fitted activation curve with a large enough effect in the signal ratio; inconclusive means small, poorly fitted or top-dose-only effect, or effect the other way, or a change in a side signal; the % refers to the signal ratio; further: 0% is about no effect); conditions: HTRF ratio (665/615); activation: at 92.2 µM (top of the series)
Outline: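 THP-1, 2000 cells/well; cpd 16 h, 37 C; add cryptate + XL665 anti-IL-8 Abs; RT 1-3 h; TR-FRET read.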

[20] = Primary qHTS for inhibitors of nuclear receptor binding SET domain protein 2 (NSD2) in an isogenic RCH-ACV NSD2 p.E1099K mutant (9B) (AID 1645876); conditions: RCH-ACV NSD2 E1099K (9B) viability, CellTiter-Glo, 72 h; series mostly up to 44.9 µM; further: potency means the concentration at half of the fitted maximal effect; nearly all actives have a fitted effect of over 70% in size
[21] = Primary qHTS for inhibitors of nuclear receptor binding SET domain protein 2 (NSD2) in an RCH-ACV wild type WT cells (2C) (AID 1645877); conditions: RCH-ACV (leukaemia line) NSD2 WT (2C) viability, CellTiter-Glo, 72 h; activity change, negative = cell killing: at 44.9 µM (top of the series) unless noted; series mostly up to 44.9 µM; further: potency means the concentration at half of the fitted maximal effect; nearly all actives have a fitted effect of over 70% in size
Tags describe the fitted curve by direction and shape or compound fluorescence and quenching.

UniProt Q03181, sequence (Q03181 whole entry, looked up): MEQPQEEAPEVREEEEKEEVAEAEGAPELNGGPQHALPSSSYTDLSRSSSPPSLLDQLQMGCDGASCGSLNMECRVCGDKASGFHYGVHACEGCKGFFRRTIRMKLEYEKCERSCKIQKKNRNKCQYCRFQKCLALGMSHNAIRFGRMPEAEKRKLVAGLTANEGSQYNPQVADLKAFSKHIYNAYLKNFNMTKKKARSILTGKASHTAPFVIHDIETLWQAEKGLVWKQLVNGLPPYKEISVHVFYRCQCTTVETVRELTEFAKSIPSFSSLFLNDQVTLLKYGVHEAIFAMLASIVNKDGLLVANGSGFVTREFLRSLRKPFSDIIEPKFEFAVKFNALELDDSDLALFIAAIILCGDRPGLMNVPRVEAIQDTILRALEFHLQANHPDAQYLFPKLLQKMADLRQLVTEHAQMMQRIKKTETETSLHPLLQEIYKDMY
UniProt P10275, sequence (P10275 whole entry, looked up): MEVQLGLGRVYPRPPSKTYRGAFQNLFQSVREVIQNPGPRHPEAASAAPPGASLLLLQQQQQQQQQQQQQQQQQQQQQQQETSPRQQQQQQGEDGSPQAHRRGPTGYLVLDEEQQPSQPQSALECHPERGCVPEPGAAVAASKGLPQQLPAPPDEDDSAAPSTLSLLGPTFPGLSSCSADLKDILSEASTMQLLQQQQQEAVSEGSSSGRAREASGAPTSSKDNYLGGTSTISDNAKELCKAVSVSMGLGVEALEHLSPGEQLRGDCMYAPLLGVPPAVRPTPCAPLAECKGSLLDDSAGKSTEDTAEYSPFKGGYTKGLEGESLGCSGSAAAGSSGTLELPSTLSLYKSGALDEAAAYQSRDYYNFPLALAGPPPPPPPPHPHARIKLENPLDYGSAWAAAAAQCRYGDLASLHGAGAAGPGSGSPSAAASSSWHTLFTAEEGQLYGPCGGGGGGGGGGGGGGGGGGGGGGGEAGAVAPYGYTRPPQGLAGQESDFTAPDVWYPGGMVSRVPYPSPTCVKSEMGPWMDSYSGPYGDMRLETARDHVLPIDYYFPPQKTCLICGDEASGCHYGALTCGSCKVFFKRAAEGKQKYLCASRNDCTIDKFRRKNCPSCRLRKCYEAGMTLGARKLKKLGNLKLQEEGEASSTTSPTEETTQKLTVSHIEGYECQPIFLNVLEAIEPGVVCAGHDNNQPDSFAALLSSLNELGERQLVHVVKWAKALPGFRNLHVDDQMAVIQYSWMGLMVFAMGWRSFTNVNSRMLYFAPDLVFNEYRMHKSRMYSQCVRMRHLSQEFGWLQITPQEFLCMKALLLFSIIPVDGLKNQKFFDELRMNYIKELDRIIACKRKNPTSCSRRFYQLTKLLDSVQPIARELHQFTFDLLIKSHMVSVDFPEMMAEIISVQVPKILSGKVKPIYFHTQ
UniProt P10635, sequence (P10635 whole entry, looked up): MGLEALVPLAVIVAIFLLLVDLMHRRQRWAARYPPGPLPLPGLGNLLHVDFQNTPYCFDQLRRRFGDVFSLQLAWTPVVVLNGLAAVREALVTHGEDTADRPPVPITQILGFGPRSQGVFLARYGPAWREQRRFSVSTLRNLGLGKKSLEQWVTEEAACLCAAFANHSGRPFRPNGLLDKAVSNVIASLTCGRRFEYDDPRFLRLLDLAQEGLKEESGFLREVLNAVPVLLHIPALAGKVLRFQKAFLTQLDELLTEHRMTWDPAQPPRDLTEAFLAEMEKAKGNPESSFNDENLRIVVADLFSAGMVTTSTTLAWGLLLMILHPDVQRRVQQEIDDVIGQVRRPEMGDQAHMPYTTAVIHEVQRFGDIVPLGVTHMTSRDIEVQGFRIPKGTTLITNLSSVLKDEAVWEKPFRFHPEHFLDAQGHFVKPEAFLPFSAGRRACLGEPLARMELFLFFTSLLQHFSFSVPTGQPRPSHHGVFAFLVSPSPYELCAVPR
UniProt P07203, sequence (P07203 whole entry, looked up): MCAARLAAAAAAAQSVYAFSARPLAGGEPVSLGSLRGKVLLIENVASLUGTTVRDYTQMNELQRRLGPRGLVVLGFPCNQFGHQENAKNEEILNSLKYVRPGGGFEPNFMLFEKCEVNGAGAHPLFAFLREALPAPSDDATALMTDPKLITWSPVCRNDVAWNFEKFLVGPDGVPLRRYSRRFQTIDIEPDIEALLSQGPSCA
UniProt P39748, sequence (P39748 whole entry, looked up): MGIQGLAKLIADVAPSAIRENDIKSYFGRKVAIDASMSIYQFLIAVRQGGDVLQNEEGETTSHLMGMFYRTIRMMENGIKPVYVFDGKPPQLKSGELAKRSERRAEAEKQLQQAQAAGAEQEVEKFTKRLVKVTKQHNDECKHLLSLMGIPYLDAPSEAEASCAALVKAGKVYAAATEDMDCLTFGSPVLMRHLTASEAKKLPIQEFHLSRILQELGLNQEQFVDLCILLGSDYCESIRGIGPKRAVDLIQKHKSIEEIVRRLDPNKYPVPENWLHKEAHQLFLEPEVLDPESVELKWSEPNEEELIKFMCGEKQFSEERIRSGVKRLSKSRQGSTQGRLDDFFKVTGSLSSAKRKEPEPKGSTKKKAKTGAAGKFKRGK

COC(=O)C1=COC(OC2OC(CO)C(O)C(O)C2O)C2C1C=CC2(O)CO (configuration not stated)
inactive: outcome (CRL-7250) | Potency (SKOV3)
inconclusive: Potency [1] 84.9 µM [inhibitor, partial curve] | Potency [2] 14.6 µM [inhibitor, partial curve]

CC(=O)/C=C/C1(O)C(C)(C)CC(O)CC1(C)O (configuration not stated)
inactive: Potency [3] | max response (CRL-7250) -6.38%

CCOc1ccc(S(=O)(=O)N2CCCCCC2)c2ccccc12
inconclusive: Potency [4] 18.4 µM [inhibitor, single point] | Potency [3] 89.1 µM [inhibitor, single point] | Potency (CRL-7250) 29.1 µM [inhibitor, single point]
inactive: Potency [5] | Potency (Tov112D)

COc1ccc(C2=N[C@@H](c3ccc(Cl)cc3)[C@@H](c3ccc(Cl)cc3)N2C(=O)N2CCNC(=O)C2)c(OC(C)C)c1
inconclusive: Potency [6] 13.5 µM [inhibitor, partial curve, poor fit] | Potency [7] 28.6 µM [inhibitor, partial curve, poor fit] | Potency (CRL-7250) 16.4 µM [inhibitor, partial curve] | Potency (Tov-21-G) 12.6 µM [cytotoxic, partial curve]
inactive: Potency [8]

CC1OC(OC2C(O)C(C(=O)O)OC(OC3CCC4(C)C(CCC5(C)C4C=CC4=C6CC(C)(C)CC(O)C6(C)CCC45C)C3(C)C)C2OC2OCC(O)C(O)C2O)C(O)C(O)C1O (configuration not stated)
inactive: max response (CRL-7250) -1.54%
active: Potency [3] 3.55 µM
inconclusive: Potency [5] 0.619 µM [inhibitor, full curve, poor fit]

CC(=O)O[C@@H]1CC(C)=C2[C@H]1[C@H](C)CC[C@H]2/C=C(\C)C(=O)O
inconclusive: activity change, negative = inhibition [10] 33.4% | activity change, negative = inhibition [11] -23.5% | Potency [12] 14.1 µM [side channel, rising, full curve] | activity change, negative = inhibition [13] 20.3% | activity, negative = inhibition [15] 9.03% | activation [16] 8.32% | Potency [17] 3.98 µM [side channel, rising, full curve] | Potency [18] 5.01 µM [side channel, rising, full curve] | activation [19] 5.23% | Potency [3] 31.6 µM [inhibitor, full curve, poor fit] | Potency [20] 29 µM [inhibitor, single point] | Potency [21] 29 µM [inhibitor, single point] | Potency [2] 23.8 µM [inhibitor, single point] | Potency [8] 29.9 µM [activator, single point] | Potency (CRL-7250) 29.1 µM [inhibitor, single point]
inactive: caspase-3 activation [9] -1.01% | Potency [14] | Potency [4]
